# Measured values from patent US20170281742A1 (published 2017).
# T1: H3.1 K27M (Mut H3.1); same residues as the A6 peptide of the alanine scan peptide on HLA-A*02:01 (human)
# T1 peptide: RMSAPATGGV
# T2: H3.3 K27M epitope, alanine at position 5 (A5) peptide on HLA-A*02:01 (human)
# T2 peptide: RMSAASTGGV
# T3: H3.3 K27M epitope, alanine at position 3 (A3) peptide on HLA-A*02:01 (human)
# T3 peptide: RMAAPSTGGV
# T4: H3.3 wild type (non-mutant) peptide on HLA-A*02:01 (human)
# T4 peptide: RKSAPSTGGV
# Tests used:
# [1] = biological target: T1, H3.1 K27M (Mut H3.1); same residues as …; assay: cytokine release
# [2] = biological target: T2, H3.3 K27M epitope, alanine at position …; assay: cytokine release
# [3] = biological target: T3, H3.3 K27M epitope, alanine at position …; assay: cytokine release
# [4] = biological target: T4, H3.3 wild type (non-mutant) peptide on …; assay: killing
binder,measurement,setting,value
"H3.3.K27M-specific TCR from CTL clone 1H5 (TCR, V domains shown) Valpha: AQKVTQAQTEISVVEKEDVTLDCVYETRDTTYYLFWYKQPPSGELVFLIRRNSFDEQNEISGRYSWNFQKSTSSFNFTITASQVVDSAVYFCALSEENDMRFGAGTRLTVKP Vbeta: EAQVTQNPRYLITVTGKKLTVTCSQNMNHEYMSWYRQDPGLGLRQIYYSMNVEVTDKGDVPEGYKVSRKEKRNFPLILESPNPNQTSLYFCASGWGGPFYEQYFGPGTRLTVT",binding result,[1],no recognition
same,binding result,[2],recognises
same,binding result,[3],recognises
same,binding result,[4],no recognition
